From the DeepSol protein solubility set

Assay: soluble on expression in E. coli; label from the status in PepcDB or PDB records

## AYPMPNPFPPFRIAGNLYYVGTDDLASYLIVTPRGNILINSDLEANVPMIKASIKKLGFKFSDTKILLISHAHFDHAAGSELIKQQTKAKYMVMDEDVSVILSGGKSDFHYANDSSTYFTQSTVDKVLHDGERVELGGTVLTAHLTPGHTRGCTTWTMKLKDHGKQYQAVIIGSIGVNPGYKLVDNITYPKIAEDYKHSIKVLESMRCDIFLGSHAGMFDLKNKYVLLSKGQNNPFVDPTGCKNYIEQKANDFYTELKKQETG
  soluble on expression in E. coli: soluble
